Assay results reported in the supplement of paper PMC9151546.
Repeats are few or missing, and single values can be far off.

How the values were obtained:
CHO-K1 [1] = experiment: relative survival (nuclei to bead ratio vs DMSO control) (% of vehicle control); higher = more surviving cells
Description: (§1)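 Flow-cytometric in vitro micronucleus assay (Litron MicroFlow) in CHO-K1 cells in 96-well plates, 19 concentrations (4.5-200 µM, n=1 per concentration). Without S9, cells were exposed for 24 h and sampled at 48 h. With Aroclor 1254-induced rat liver S9, cells were exposed for 3-4 h and sampled at 27-28 h. Read-outs are %MN and %hypodiploid nuclei relative to nucleated events, and relative survival as the nuclei-to-bead ratio versus the 1% DMSO vehicle control (x100).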

CHO-K1 [2] = experiment: hypodiploid nuclei frequency (% of nucleated events); higher = more hypodiploid events (aneugenic)
Description: as §1

CHO-K1 [3] = experiment: micronucleus frequency (% of nucleated events); higher = more micronuclei (genotoxic)
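Wherever hypodiploid nuclei frequency (% of nucleated events) is given: hypodiploid nuclei gated on a flow cytometer with 488 nm excitation after SYTOX Green staining, cultures at 37 °C, positive controls vinblastine without S9 and cyclophosphamide with S9.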
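Wherever micronucleus frequency (% of nucleated events) is given: cells lysed with nuclei stained by SYTOX Green, then micronucleus-gated events counted against nucleated events by flow cytometry with 488 nm excitation.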
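Wherever relative survival (nuclei to bead ratio vs DMSO control) is given: Lysed-cell nuclei stained with SYTOX Green and counted against counting beads by flow cytometry at 488 nm excitation, with vinblastine (no S9) and cyclophosphamide (plus S9) as positive controls.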

O=[N+]([O-])c1ccccc1 [Nitrobenzene]
Conditions	hypodiploid nuclei frequency, CHO-K1 [2] [%]	micronucleus frequency, CHO-K1 [3] [%]	relative survival, CHO-K1 [1]
concentration: 4.48 (µM), S9 metabolic activation: with S9, exposure time: 3-4 hours	0.38	0.74	117
concentration: 4.48 (µM), S9 metabolic activation: without S9, exposure time: 24 hours	0.86	1.56	111
concentration: 5.6 (µM), S9 metabolic activation: with S9, exposure time: 3-4 hours	0.24	1.28	135
concentration: 5.6 (µM), S9 metabolic activation: without S9, exposure time: 24 hours	0.72	1.46	127
concentration: 7 (µM), S9 metabolic activation: with S9, exposure time: 3-4 hours	0.18	0.72	131
concentration: 7 (µM), S9 metabolic activation: without S9, exposure time: 24 hours	0.72	1.2	122
concentration: 8.75 (µM), S9 metabolic activation: with S9, exposure time: 3-4 hours	0.18	1.02	130
concentration: 8.75 (µM), S9 metabolic activation: without S9, exposure time: 24 hours	1.02	1.6	107
concentration: 10.9 (µM), S9 metabolic activation: with S9, exposure time: 3-4 hours	0.18	0.66	102
concentration: 10.9 (µM), S9 metabolic activation: without S9, exposure time: 24 hours	0.86	1.6	112
concentration: 13.7 (µM), S9 metabolic activation: with S9, exposure time: 3-4 hours	0.2	0.86	116
concentration: 13.7 (µM), S9 metabolic activation: without S9, exposure time: 24 hours	0.84	1.5	103
concentration: 17.1 (µM), S9 metabolic activation: with S9, exposure time: 3-4 hours	0.2	1.14	121
concentration: 17.1 (µM), S9 metabolic activation: without S9, exposure time: 24 hours	0.74	1.24	120
concentration: 21.4 (µM), S9 metabolic activation: with S9, exposure time: 3-4 hours	0.2	0.72	89.6
concentration: 21.4 (µM), S9 metabolic activation: without S9, exposure time: 24 hours	0.72	1.22	101
concentration: 26.7 (µM), S9 metabolic activation: with S9, exposure time: 3-4 hours	0.16	1.02	151
concentration: 26.7 (µM), S9 metabolic activation: without S9, exposure time: 24 hours	1.7	0.94	87.6
concentration: 33.4 (µM), S9 metabolic activation: with S9, exposure time: 3-4 hours	0.22	0.52	117
concentration: 33.4 (µM), S9 metabolic activation: without S9, exposure time: 24 hours	3.48	1.14	85.7
concentration: 41.7 (µM), S9 metabolic activation: with S9, exposure time: 3-4 hours	0.26	1.16	128
concentration: 41.7 (µM), S9 metabolic activation: without S9, exposure time: 24 hours	1.42	1.2	102
concentration: 52.2 (µM), S9 metabolic activation: with S9, exposure time: 3-4 hours	0.34	1.86	120
concentration: 52.2 (µM), S9 metabolic activation: without S9, exposure time: 24 hours	0.94	1.26	123
concentration: 65.2 (µM), S9 metabolic activation: with S9, exposure time: 3-4 hours	0.34	0.64	111
concentration: 65.2 (µM), S9 metabolic activation: without S9, exposure time: 24 hours	1.12	1.18	119
concentration: 81.5 (µM), S9 metabolic activation: with S9, exposure time: 3-4 hours	0.3	1.02	130
concentration: 81.5 (µM), S9 metabolic activation: without S9, exposure time: 24 hours	1.14	1.2	101
concentration: 102 (µM), S9 metabolic activation: with S9, exposure time: 3-4 hours	0.28	1.46	105
concentration: 102 (µM), S9 metabolic activation: without S9, exposure time: 24 hours	1.34	1.36	113
concentration: 127 (µM), S9 metabolic activation: with S9, exposure time: 3-4 hours	0.14	0.72	117
concentration: 127 (µM), S9 metabolic activation: without S9, exposure time: 24 hours	1.22	1.28	98.3
concentration: 159 (µM), S9 metabolic activation: with S9, exposure time: 3-4 hours	0.18	0.62	103
concentration: 159 (µM), S9 metabolic activation: without S9, exposure time: 24 hours	1.52	1.4	121
concentration: 199 (µM), S9 metabolic activation: with S9, exposure time: 3-4 hours	0.16	0.86	97.9
concentration: 199 (µM), S9 metabolic activation: without S9, exposure time: 24 hours	1.98	2.24	99.3
